# Measurements: patent publication US11542275B2, “Substituted imidazolidin-2-one derivatives as PRMT5 inhibitors” (Aurigene Discovery Technologies Limited, priority 2018, dated 2023)
# Target: PRMT5/MEP50 Complex (Homo sapiens (Human), UniProt O14744)
# Assay: PRMT5 inhibition based on TR-FRET assay
# Format: biochemical
# Details: 32 nM PRMT5:MEP50 complex, 50 nM Histone-H4 peptide, 1 μM SAM, 90 minutes at room temperature
# Excerpt: Protein arginine methyltransferase 5 (PRMT5) is a type II arginine methyltransferase that catalyze mono- and symmetric demethylation on arginine residues of histone or non-histone proteins in presence of S-adenosylmethionine (AdoMet or SAM) a cofactor responsible for donating the methyl group. PRMT5 is reported to be overexpressed in several human cancers. To identify compounds that inhibit the PRMT5 and decrease its activity, a TR-FRET based assay has been established. Time-resolved fluorescence resonance energy transfer (TR-FRET) HTS assays are homogeneous proximity assays where the interaction of two dye-labeled binding partners is detected by the energy transfer between a donor and an acceptor dye, and the subsequent light emission by the acceptor dye. PRMT5 catalyzes Histone H4 peptide which is biotin tagged to the Lysine amino acid at carboxyl end, in presence of S-adenosyl-1-methionine (SAM) to methylate the peptide. The antibody specific to mono methylated H4 peptide (H4R3) with Ig conjugate binds to the methylated peptide, indirectly binding to the Europium lanthanide. SureLight Allophycocyanin-Streptavidin binds to the biotin tag of the peptide, therefore accepting the energy transferred from the Europium lanthanide. This energy transfer between Europium to SureLight Allophycocyanin is a direct measure of the activity/inhibition of the PRMT5 enzyme.
# Assay buffer: 20 mM BICINE (pH 7.6), 25 mM NaCl, 2 mM DTT, 0.01% Tween-20 and 0.01% BSA.
# The compound dilutions were prepared as 7.5% DMSO stock solutions in assay buffer. To 2 μL (7.5×) of test compound, 5 μL of PRMT5 enzyme prepared in assay buffer (Final concentration of 32 nM in 15 μL reaction volume) was added and allowed for 30 minutes pre-incubation time in a white polystyrene 384-well plate at room temperature. […] The plates were then read on Victor-3 with Excitation at 340 nm and Emissions collected at 615 and 665 nm in TR-FRET protocol. […]
row,IC50 [µM],SMILES
1,0.018,"O=C1N(Cc2ccc(-c3ccnc(O)c3)cn2)CCN1C[C@H](O)CN1CCc2ccccc2C1 [Compound 56, (R)-1-(3-(3,4-dihydroisoquinolin-2(1H)-yl)-2-hydroxypropyl)-3-((2′-hydroxy-[3,4′-bipyridin]-6-yl)methyl)imidazolidin-2-one]"
2,0.02,"COc1cc(-c2ccc(CN3CCN(C[C@H](O)CN4CCc5ccccc5C4)C3=O)cn2)ccn1 [Compound 58, (R)-1-(3-(3,4-dihydroisoquinolin-2(1H)-yl)-2-hydroxypropyl)-3-((2′-methoxy-[2,4′-bipyridin]-5-yl)methyl)imidazolidin-2-one]"
3,0.07,"N#Cc1ncc(-c2ccnc(CN3CCN(C[C@H](O)CN4CCc5ccccc5C4)C3=O)c2)cn1 [Compound 54, (R)-5-(2-((3-(3-(3,4-dihydroisoquinolin-2(1H)-yl)-2-hydroxypropyl)-2-oxoimidazolidin-1-yl)methyl)pyridin-4-yl)pyrimidine-2-carbonitrile]"
